Measured values reported in the supplement of paper PMC4967469.

Experiments:
Assay in all cases: Viability of human cancer cell lines after 72 h of drug (GDSC screen)
EHT 1864 = compound: O=c1cc(CN2CCOCC2)occ1OCCCCCSc1ccnc2cc(C(F)(F)F)ccc12 [EHT 1864]; conditions: top dose 10 µM; top dose inferred
Experimental: (§1)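 Human cancer cell lines in 384-well plates, medium with 10% serum, drug for 72 h over a 256-fold dose range (nine 2-fold or five 4-fold steps up to the top dose). Adherent lines were fixed and stained with the nucleic acid dye Syto60, suspension lines read with resazurin; signal relative to control wells, capped at 0 and 100%. One two-parameter sigmoid per drug and line, fitted in a mixed model over all curves with the slope shared within a line.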

Gefitinib = compound: COc1cc2ncnc(Nc3ccc(F)c(Cl)c3)c2cc1OCCCN1CCOCC1 [Gefitinib]; conditions: top dose 0.5 µM
Experimental: as §1

QL-XI-92 = compound: C=CC(=O)Nc1cc(NC(=O)c2ccc(C)c(NC(=O)c3ccno3)c2)cc(C(F)(F)F)c1 [QL-XI-92]; conditions: top dose 10.24 µM; top dose inferred
Experimental: as §1

S-Trityl-L-cysteine = compound: N[C@@H](CSC(c1ccccc1)(c1ccccc1)c1ccccc1)C(=O)O [S-Trityl-L-cysteine]; conditions: top dose 5.12 µM; top dose inferred
Experimental: as §1

Phenformin = compound: N=C(N)NC(=N)NCCc1ccccc1 [Phenformin]; conditions: top dose 4000 µM; top dose inferred
Experimental: as §1

XL-184 = compound: COc1cc2nccc(Oc3ccc(NC(=O)C4(C(=O)Nc5ccc(F)cc5)CC4)cc3)c2cc1OC [XL-184]; conditions: top dose 5.12 µM; top dose inferred
Experimental: as §1

AG-014699 = compound: CNCc1ccc(-c2[nH]c3cc(F)cc4c3c2CCNC4=O)cc1 [AG-014699]; conditions: top dose 5 µM; top dose inferred
Experimental: as §1

NU-7441 = compound: O=c1cc(N2CCOCC2)oc2c(-c3cccc4c3sc3ccccc34)cccc12 [NU-7441]; conditions: top dose 2 µM; top dose inferred
Experimental: as §1

WHI-P97 = compound: COc1cc2ncnc(Nc3cc(Br)c(O)c(Br)c3)c2cc1OC [WHI-P97]; conditions: top dose 10.24 µM; top dose inferred
Experimental: as §1

Vinorelbine = compound: CCC1=C[C@@H]2CN(C1)Cc1c([nH]c3ccccc13)[C@@](C(=O)OC)(c1cc3c(cc1OC)N(C)[C@H]1[C@@](O)(C(=O)OC)[C@H](OC(C)=O)[C@]4(CC)C=CCN5CC[C@]31[C@@H]54)C2 [Vinorelbine]; conditions: top dose 0.064 µM; top dose inferred
Experimental: as §1

Cell Line	AUC (EHT 1864)	IC50 (EHT 1864) [µM]	AUC (Gefitinib)	IC50 (Gefitinib) [µM]	AUC (QL-XI-92)	IC50 (QL-XI-92) [µM]	AUC (S-Trityl-L-cysteine)	IC50 (S-Trityl-L-cysteine) [µM]	AUC (Phenformin)	IC50 (Phenformin) [µM]	AUC (XL-184)	IC50 (XL-184) [µM]	AUC (AG-014699)	IC50 (AG-014699) [µM]	AUC (NU-7441)	IC50 (NU-7441) [µM]	AUC (WHI-P97)	IC50 (WHI-P97) [µM]	AUC (Vinorelbine)	IC50 (Vinorelbine) [µM]
C2BBe1 (large intestine, adherent)	0.899	> 10	0.945	> 0.5	0.969	> 10.2	0.964	> 5.12	0.727	1220	0.97	> 5.12	0.986	> 5	0.982	> 2	0.931	> 10.2	0.879	> 0.064
CA46 (Burkitt lymphoma, suspension)	0.964	> 10	0.975	> 0.5	0.846	8.32	0.894	> 5.12	0.503	254	0.887	> 5.12	0.979	> 5	0.982	> 2	0.955	> 10.2	0.729	0.019
CAS-1 (glioma, adherent)			0.976	> 0.5	0.95	> 10.2	0.981	> 5.12	0.79	2550	0.896	> 5.12	0.945	> 5	0.966	> 2	0.981	> 10.2	0.818	0.0547
CGTH-W-1 (thyroid, adherent)	0.962	> 10	0.987	> 0.5	0.897	> 10.2	0.913	> 5.12	0.959	> 4000	0.931	> 5.12	0.938	> 5	0.953	> 2	0.977	> 10.2	0.323	0.00129
CHP-126 (neuroblastoma, suspension)	0.987	> 10	0.987	> 0.5	0.925	> 10.2	0.929	> 5.12	0.975	> 4000	0.976	> 5.12	0.947	> 5	0.976	> 2	0.954	> 10.2	0.863	0.0575
ES4 (Ewing sarcoma, adherent)			0.942	> 0.5	0.932	> 10.2	0.81	3.19	0.814	2590	0.908	> 5.12	0.924	> 5	0.96	> 2	0.876	> 10.2	0.742	0.0221
KCL-22 (chronic myeloid leukaemia, suspension)	0.986	> 10	0.99	> 0.5	0.673	1.78	0.586	0.529	0.719	923	0.77	1.65			0.977	> 2	0.977	> 10.2	0.659	0.0102
KOPN-8 (B-cell leukaemia, suspension)	0.971	> 10	0.99	> 0.5	0.781	3.64	0.665	0.851	0.434	169	0.833	2.67			0.96	> 2	0.951	> 10.2	0.722	0.0152
NB13 (neuroblastoma, adherent)			0.962	> 0.5	0.919	> 10.2	0.773	1.77	0.973	> 4000	0.91	> 5.12	0.944	> 5	0.966	> 2	0.971	> 10.2	0.55	0.00538
NCI-H1838 (lung adenocarcinoma, adherent)			0.951	> 0.5	0.985	> 10.2	0.98	> 5.12	0.834	3440	0.981	> 5.12	0.985	> 5	0.984	> 2	0.974	> 10.2	0.987	> 0.064
SK-ES-1 (Ewing sarcoma, semi-adherent)	0.973	> 10	0.967	> 0.5	0.953	> 10.2	0.786	2.37	0.763	1530	0.927	> 5.12			0.915	> 2	0.93	> 10.2	0.642	0.0101
SK-N-FI (neuroblastoma, adherent)	0.97	> 10	0.98	> 0.5	0.986	> 10.2	0.849	3.79	0.946	> 4000	0.974	> 5.12			0.968	> 2	0.986	> 10.2	0.986	> 0.064

By IC50 is meant the dose at which the fit gives 50% viability; a fit beyond the top or the lowest dose is shown as a bound at that dose. AUC sums up the same curve from the lowest dose to the 256-fold higher top dose; it is 1 without any effect and falls as sensitivity rises. For some assays here: A top dose marked as inferred was calculated from the reported fits.
